Numbering of substitutions follows the chain as printed. These are yes or no findings as the source states them, for the method shown. Binding seen in cells or lysates may run through a third protein. Some entries that bind do so weakly or less than the wild type. Where a sequence is shown, tags or fusion partners need not be part of it.
Key:
Assay in all cases: pull-down; GST fusion protein immobilised on glutathione beads, incubated with Triton X-100 extract of mouse brain homogenate (2 hr, room temperature; 130 mM NaCl, 50 mM HEPES, 1 mM EDTA, Triton X-100, pH 7.3); bound proteins eluted by thrombin cleavage; SDS-PAGE and western blotting; only the target purified
[1] = molecular target: T1, GST-CpxII CTD L124E-L128E (mouse) (UniProt P84086)
T1 sequence: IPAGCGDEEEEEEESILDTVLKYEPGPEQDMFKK

Chains of the proteins cited; added tags and fusions are not shown.
UniProt P63044: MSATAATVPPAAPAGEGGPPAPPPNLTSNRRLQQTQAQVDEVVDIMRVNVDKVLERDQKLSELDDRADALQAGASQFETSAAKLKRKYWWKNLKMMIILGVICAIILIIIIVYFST
UniProt P46096: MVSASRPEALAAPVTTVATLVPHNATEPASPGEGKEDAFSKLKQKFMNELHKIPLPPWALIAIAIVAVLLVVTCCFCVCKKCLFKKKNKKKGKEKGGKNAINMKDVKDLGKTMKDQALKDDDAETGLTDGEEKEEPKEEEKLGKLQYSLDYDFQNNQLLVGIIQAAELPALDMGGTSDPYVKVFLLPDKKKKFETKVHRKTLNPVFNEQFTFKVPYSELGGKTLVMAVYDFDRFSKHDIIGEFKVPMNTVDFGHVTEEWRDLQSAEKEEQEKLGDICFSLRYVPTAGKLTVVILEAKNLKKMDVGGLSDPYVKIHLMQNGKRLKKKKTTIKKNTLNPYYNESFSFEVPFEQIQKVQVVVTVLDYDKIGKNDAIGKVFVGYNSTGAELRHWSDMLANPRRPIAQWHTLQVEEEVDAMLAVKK

[2] = molecular target: T2, GST-CpxII CTD L124W-L128W (mouse) (UniProt P84086)
T2 sequence: T1 sequence with E24W, E28W

[3] = molecular target: T3, GST-CpxII CTD (Complexin II C-terminal domain, wild type) (mouse) (UniProt P84086)
T3 sequence: T1 sequence with E24L, E28L

binding [1] | binding [2] | binding [3] | Substance
no binding | binds | binds weakly | SynaptobrevinII (SybII) (from UniProt P63044 1-116)
no binding | binds | binds | Synaptotagmin I (SytI) (from UniProt P46096 1-421)
